Laboratory results: PubChem BioAssay (NCATS)
Several values for one entry are separate records, joined by “and”; a condition that tells them apart may be missing. Identical values can stand only once. Inconclusive means that the source gave no clear call. Such entries were picked first, then a sample of the others. Where the call is inconclusive, the potency comes from a doubtful curve fit. Activity calls are given as the source filed them. The call rests on the fitted dose curve; in most records, active means well fitted curve in the direction sought with a large enough effect; inconclusive means small, poorly fitted or top-dose-only effect, or another doubt; inactive means no such curve, though single readings can be large; an effect the other way counts as inactive or inconclusive.

Tests used:
[1] = Viability qHTS for spleen associated tyrosine kinase inhibitor (SYKi) naive MV4-11 cells (AID 1963823); details: MV4-11 AML viability, CellTiter-Glo luminescence, 72 h; series mostly up to 45 µM; further: nearly all actives have a fitted effect of over 40% in size
In short: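 Viability of MV4-11 AML cells lacking prior SYK inhibitor exposure is scored by CellTiter-Glo luminescence following 72 hr compound incubation at 37 C, 5% CO2, seeded at 500 cells per well.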

[2] = Viability qHTS for spleen associated tyrosine kinase inhibitor (SYKi) drug resistant MV4-11 cells (AID 1963824); details: SYKi-resistant MV4-11 viability, CellTiter-Glo, 72 h; series mostly up to 45 µM; further: nearly all actives have a fitted effect of over 35% in size
In short: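 SYK inhibitor-resistant MV4-11 AML cells, 500 per well, added to predispensed compounds and incubated 72 hr at 37 C, 5% CO2. Viability measured by CellTiter-Glo luminescence after 10 min at room temperature.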

[3] = Cellular viability qHTS for adrenocortical cancer (ACC) cell line SW-13 (AID 1963989); details: SW-13 ACC cells viability, CellTiter-Glo, 48 h; activity (max response): stronger effect = lower value; further: nearly all actives have a fitted effect of over 65% in size;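 on activity (max response): cells grown in serum-free medium with ITS supplement; on the % scale 0 is the no-effect control and ±100 the full control effect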
In short: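 48 h treatment, SW-13 in ITS/DMEM serum-free; doses up to 46 uM; readout CellTiter-Glo luminescence; curve fit four-parameter logistic.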
Potency means the concentration at half of the fitted maximal effect; tags describe the fitted curve by direction and shape.

SMILES | Potency [1] | Potency [2] | Potency [3] | activity (max response) [3]
N[C@@H]1C[C@H]1c1ccccc1 | inconclusive: 16.8 µM [cytotoxic, partial curve] and active: 16.6 µM | active: 11.9 µM and active: 3.72 µM | inconclusive: 18.4 µM [cytotoxic, single point] | 
OC(c1ccccc1)(c1ccccc1)C1CCNCC1 | inconclusive: 0.0422 µM [cytotoxic, full curve, poor fit] | inconclusive: 13.3 µM [cytotoxic, partial curve] |  | inactive: 1.1%
CC#C[C@]1(O)CC[C@H]2[C@@H]3C[C@H](C)C4=CC(=O)CC[C@]4(C)[C@H]3CC[C@@]21C | inconclusive: 3.76 µM [cytotoxic, full curve] | inconclusive: 5.31 µM [cytotoxic, single point] | inconclusive: 23.1 µM [cytotoxic, single point] | 
CC(N[C@H]1C[C@@H]1c1ccccc1)c1ccc2c(c1)OCCO2 (stereo partly drawn) | inconclusive: 16.6 µM [cytotoxic, partial curve, poor fit] | inconclusive: 16.6 µM [cytotoxic, partial curve] | inconclusive: 44.7 µM [cytotoxic, single point] | 
CCN(CC)C(=O)[C@@H]1C=C2c3cccc4[nH]cc(c34)C[C@H]2N(C)C1 | active: 28.4 µM | inconclusive: 11.3 µM [cytotoxic, full curve, poor fit] | inconclusive: 126 µM [cytotoxic, single point] | 
CC(=O)NC1CCSC1=O (stereo not drawn) | inactive | inactive |  | inactive: 9.14%
O=C1NCN(c2ccccc2)C12CCN(CCCOc1ccc(F)cc1)CC2 | inconclusive: 0.0009 µM | inconclusive: 0.0015 µM [rising, full curve, poor fit] | inconclusive: 2.59 µM [cytotoxic, partial curve, poor fit] | 
COC1CC(=C(c2cccs2)c2cccs2)C[N+](C)(C)C1 (stereo not drawn) | inconclusive: 26.6 µM [cytotoxic, single point] | active: 16.8 µM | inconclusive: 23.1 µM [cytotoxic, single point] | 
CCCCC/C=C\C/C=C\C/C=C\C/C=C\CCCC(=O)NCC(=O)O | inconclusive: 0.0094 µM [cytotoxic, full curve, poor fit] | inconclusive: 0.006 µM [cytotoxic, full curve, poor fit] | inconclusive: 20.6 µM [cytotoxic, single point] | 
CCC(OC(C)=O)C(CC(C)NC)(c1ccccc1)c1ccccc1 (stereo not drawn) | active: 43.7 µM | active: 31 µM | active: 28.2 µM | 
O=c1oc2ccccc2c(O)c1C(CC(O)c1ccc(-c2ccc(Br)cc2)cc1)c1ccccc1 (stereo not drawn) | inconclusive: 29.9 µM [cytotoxic, single point] | inconclusive: 21.1 µM [cytotoxic, partial curve, poor fit] | inconclusive: 20.6 µM [cytotoxic, single point] | 
O=C(CCCN1CCC(n2c(=O)[nH]c3ccccc32)CC1)c1ccc(F)cc1 | inconclusive: 2.37 µM [cytotoxic, partial curve, poor fit] | inconclusive: 29.9 µM [cytotoxic, single point] |  | inactive: -18.7%
Oc1ccc(Cl)cc1Cc1ccccc1 | active: 24.6 µM and inconclusive: 18.8 µM [cytotoxic, partial curve] | inconclusive: 23.7 µM [cytotoxic, partial curve] | active: 35.5 µM and inconclusive: 18.4 µM [cytotoxic, single point] | 
O=[N+]([O-])O[C@H]1CO[C@H]2[C@@H]1OC[C@H]2O[N+](=O)[O-] | inconclusive: 1.5 µM [rising, partial curve, poor fit] | inactive |  | inactive: 12.6%
c1ccc2c(c1)sc1ccccc12 | inactive | inconclusive: 0.531 µM [cytotoxic, full curve, poor fit] |  | inactive: 0.898%
O=C1C(I)=CC(=C(c2cc(I)c(O)c(I)c2)c2ccccc2C(=O)O)C=C1I | inconclusive: 21.1 µM [cytotoxic, partial curve] | inconclusive: 11.9 µM [cytotoxic, partial curve] | inconclusive: 29.1 µM [cytotoxic, single point] | 
